Where “and” joins values, the source holds several entries; their conditions need not be identical. Equal values may be shown once.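 These data come from cells grown in 96-well plates and exposed to compound for 48 hours at five concentrations. GI50 marks 50% less growth. TGI marks complete inhibition of growth.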

In this assay the test system is NCI-H322M lung. In words: NCI anticancer screen, dose series, 48 h.
Consider `O=C1CC/C(=C/COc2cc(=O)oc3ccccc23)O1`, for which the GI50 was 14.6 µM and the TGI worked out at 41.7 µM. The matching figures for `COc1ccc(C(=O)c2sc3nc(-c4cccs4)ccc3c2N)cc1OC`: above 100 µM and above 100 µM. `CCC(C)C(=O)OCC(=O)c1ccc(-c2ccccc2)cc1` (stereo not given) returned a TGI above 100 µM. Still for that read-out and setting: in the case of `C=C1C(=O)O[C@H]2C[C@@H]1[C@@H](O)[C@H](O)[C@@H](C)CCCC(C)=CCC[C@@]2(C)O` it was above 100 µM; in that of `C[C@]12CC(c3ccccc3O1)C(C(=O)Nc1nc(C34CC5CC(CC(C5)C3)C4)cs1)C(=O)N2` (stereo not given in full), above 100 µM.

For `Cc1nc2cc(Nc3nc(Nc4ccc(F)cc4)nc(N4CCOCC4)n3)ccc2n1Cc1ccccc1`, the GI50 is 8.21 µM and the TGI was 38.2 µM. Consider `COc1ccc(C(=O)C#Cc2c[nH]c(=O)[nH]c2=O)cc1`, for which the TGI amounted to 35.7 µM.

The compound `O=C(Cn1c(C(=O)c2ccccc2)nc2ccccc21)c1ccccc1` showed a TGI above 100 µM. Consider `O=C1c2cccnc2C(=O)c2c1c(C(=O)OCCCN1CCCCC1)c1ccccn21`, for which the GI50 is below 0.0118 µM and the TGI stood at 1.62 µM.

As to `CC([O-])=C1C(=O)c2ccccc2C1=O.CC([O-])=C1C(=O)c2ccccc2C1=O.CC[O-].CC[O-].[Ti+4]`, the GI50 was above 100 µM and the TGI was above 100 µM. In the case of `CCCCOC(=O)C1CC[C@H]2[C@@H]3CCc4cc(OC(=O)c5cccc6c(=O)c7ccccc7[nH]c56)ccc4[C@H]3CC[C@]12C` (stereo not given in full), the TGI was 18.7 µM. `CC(=O)O[C@H]1CC[C@@]2(C)C(=C/C(=N/OCCN3CCCC3)[C@H]3[C@@H]4CC[C@H](OC(C)=O)[C@@]4(C)CC[C@@H]32)C1`: the GI50 was 90.7 µM and the TGI is above 100 µM. Turning to `CC(C)=CC(=O)c1[nH]c2ccccc2c1CC(=O)NCCc1cncn1C`, the TGI is above 100 µM. With `C/C(=C/CC[C@]1(CO)CC[C@]2(C)[C@H](CC[C@@H]3[C@@]4(C)CC[C@H](OC5OC(CO)C(O)C(O)C5OC5OC(CO)C(O)C(O)C5O)C(C)(C)[C@@H]4CC[C@]32C)[C@H]1O)CO` (stereo not given in full), the TGI was above 100 µM.

Turning to `CCCCOC1OC(COC(=O)C(C)C)C(OC(=O)C(C)C)C(O)C1OC1OC(C)C(OC(=O)CCC)C(OC(=O)C(C)C)C1O` (stereo not given), the GI50 is 13.8 µM and the TGI was 28.2 µM. With `O=C(CC1C=Cc2ccccc2N1C(=O)c1ccccc1)c1ccccc1` (stereo not given), the TGI is 72.2 µM. Still for that read-out and setting: as for `C(=Nc1ccc(-c2nc3ccccc3s2)cc1)c1ccc[nH]1`, the figure is 72.1 µM. Consider `CCCCCCCCCCCCCC[n+]1ccc(C)cc1`, for which the GI50 was 1.75 µM and the TGI worked out at 3.47 µM. With `C#CC(O)/C=C/CCCCCCC#CC/C=C\CC#CCCCCCCCCC(O)C#C` (stereo not given), the TGI amounted to 28.4 µM. `COc1ccc(CCN2CCC(CN(C)Cc3cnn(-c4ccccc4)c3)CC2)cc1`: the GI50 is 16.3 µM and the TGI is 45.8 µM. The matching figures for `Cc1nc2ccccc2nc1N=Nc1ccccc1`: 30.9 µM and above 100 µM.

With `COCCOCCOCc1n(Cc2ccc3ccccc3n2)c2ccccc2[n+]1Cc1ccc2ccccc2n1`, the GI50 is 3.91 µM and the TGI was 37.7 µM. In turn, `O=C1CSC(c2ccc(Cl)cc2Cl)N1c1ccc(Oc2ccc(Cl)cc2)c(Cl)c1` (stereo not given) gave a TGI of 98.3 µM. The same measure, in the same setting: in the case of `CC(=O)c1ccc(NC(=O)COC(=O)c2cccc3c(=O)c4ccccc4[nH]c23)cc1` it was above 100 µM; in that of `CC(=O)NC1=NC(=O)/C(=C/c2ccc(/C=C3/C(=O)N=C(NC(C)=O)N3C)cc2)N1C`, above 100 µM; in that of `Cc1ccc(C2(c3ccc(F)cc3)OC(=O)c3ccccc32)c(O)c1` (stereo not given), 26.2 µM.

On to `CCn1c2ccccc2c2c(-c3ccccc3)cc3c(c21)C(=O)N(c1ccccc1)C3=O`, for which the TGI is above 100 µM. With `COc1cc2c(c(OC)c1OC)-c1ccc(N=NC(N)=S)c(=O)cc1[C@@H](NC(C)=O)CC2`, the GI50 was 0.434 µM and the TGI is above 100 µM. Take `O=C1CSC(c2cccc(Cl)c2)N1c1ccc(-c2ccc(-n3c(-c4ccccc4)nc4ccccc4c3=O)cc2)cc1` (stereo not given): the TGI is above 100 µM. Same read-out and setting: in the case of `CCOC(=O)C1(C#N)CC1` it was above 100 µM; in that of `COc1cc(C(C)O)c[n+](CCC2CNc3ccccc32)c1` (stereo not given), above 100 µM; in that of `COC(=O)Cc1cc(=O)[nH]c2c1C(=O)CCC2`, above 100 µM. `CC1SC2(CCCCC2)N(NC(=O)c2[nH]c3ccc(Br)cc3c2-c2ccccc2)C1=O` (stereo not given): the GI50 was 51.2 µM and the TGI is above 100 µM. In the same order, the values of `NC1(Cc2ccc(Cl)cc2)CCN(c2ncnc3[nH]ccc23)CC1` are 4.09 µM and 35.1 µM.

For `CCN1C(=NCCO)NS(=O)(=O)c2ccccc21`, the TGI was above 100 µM. As to `C=C1C(=O)OC2CC(C)C3C4OC4C(O)C3(C)C(O)C12` (stereo not given), the TGI was found to be 86.7 µM. The same measure, in the same setting: as for `CCc1nc(N)nc(N)c1-c1ccc(Cl)c(N=[N+]=[N-])c1`, the figure is above 100 µM; as for `CC1OC(CC(=O)O)CC2=C1C(=O)c1c(O)cccc1C2=O` (stereo not given), 3.02 µM; as for `C#CCN(Cc1ccc2nc(-c3ccccc3)c(N)nc2c1)c1cc(OC)c(OC)c(OC)c1`, above 100 µM. Still for that read-out and setting: in the case of `CC1(C)COC2=C(C1)C(=O)c1ccccc1C2=O` it was 3.05 µM; in that of `Cc1c2c(n(CC(c3ccccc3)c3ccccc3)c1C)NN=C(C#N)S2(=O)=O`, above 100 µM; in that of `C/C(=N\NC(=S)N1CCCCCC1)c1cccc2cccnc12`, above 67 µM. `Cc1[nH]c2cc(F)ccc2c1-c1nc2c3cccnc3c3ncccc3c2[nH]1`: the GI50 was 0.0457 µM and the TGI was 1.02 µM. The compound `O=C(O)c1nc2ccc(C(F)(F)F)cc2nc1Nc1ccc(F)cc1` showed a TGI of 81.6 µM.

`CC(C)(C)N/N=C(\C(=O)NC1=C(Cl)C(=O)c2ccccc2C1=O)C1C=CCS1(=O)=O` (stereo not given): the TGI worked out at 31.3 µM.

In turn, `O=C1CCCCC12CCC/C2=N\O` (stereo not given) showed a TGI above 100 µM. Same read-out and setting: as for `OC1(c2ccc(Cl)cc2)c2ccccc2-c2nc3ccccc3n21` (stereo not given), the figure is above 100 µM. For the compound `Cn1c(=O)c2c(nc3sc4ccccc4c(=O)n32)n(C)c1=O`, the TGI was above 100 µM. `CC(=O)NC(C=O)C(O[C@H](C)C(=O)NC(C)C(=O)NC(CCC(N)=O)C(=O)OCc1ccccc1)C(O)C(O)COC(=O)CCNc1c2ccccc2nc2cccc([N+](=O)[O-])c12` (stereo not given in full) registered a TGI of 9.97 µM. `CCN1CCC(CNC(=O)c2ccc(N)cc2)N1CC` (stereo not given) came in with a TGI above 100 µM. On the same count and under the same terms, in the case of `O=[N+]([O-])c1cc2no[n+]([O-])c2cc1N1CCCCC1` it was 28.6 µM.

For `Cc1ccc(-n2nnnc2-c2cnc(N3CCOCC3)nc2-c2cccc(C(F)(F)F)c2)cc1`, the GI50 was 1.95 µM and the TGI was determined as 15.1 µM. `O=c1c2cc3c(cc2c2cccc4c2n1CCC4)OCO3` came in with a TGI above 100 µM. Consider `CN1CCN(c2nc(-c3csc(-c4cccs4)n3)cc3ccccc23)CC1`, for which the GI50 is 1.69 µM and the TGI came out at 3.37 µM. The compound `c1ccc(OCc2nnc3n2N=C(c2ccccc2)CS3)cc1` came in with a TGI above 100 µM. Take `CC(=O)/C=C/c1ccc(OCc2ccc(Cl)cc2)cc1`: the GI50 is 980 µM and the TGI is above 1000 µM. In the case of `CC(C)c1ccccc1SCc1cc(=O)cc(CSc2ccccc2C(C)C)o1`, the TGI is 41.9 µM. Regarding `COC(=O)C(C(=O)OC)C(Br)C(Br)C(Br)c1ccccc1` (stereo not given), the GI50 was 16.5 µM and the TGI was determined as 32 µM. Turning to `O=C(Nc1ccc(S(=O)(=O)/N=c2\ncccn2C(=O)C(C(F)(F)F)C(F)(F)F)cc1)C(C(F)(F)F)C(F)(F)F`, the TGI is above 100 µM. As for `NC(=O)c1sc(-n2cnc3cc(C(F)(F)F)ccc32)cc1OCc1ccccc1Br`, the GI50 was above 25 µM and the TGI was above 25 µM. `O=C(O)/C=C/c1ccc2c(c1)CC1(Cc3ccccc3C1)C2` showed a TGI above 100 µM. Still for that read-out and setting: in the case of `OC1COC2CC(Nc3ccccn3)OC12` (stereo not given) it was above 100 µM. As to `CCOc1ccc2c(c1)c(CC(=O)O)cn2C`, the TGI is above 100 µM. On the same count and under the same terms, in the case of `COc1ccc(-c2c(-c3ccccc3)c(C)nc3nc(SC)nc(SC)c23)cc1OC` it was above 100 µM; in that of `O=C(O)[C@H](CCC[C@H]1C(=O)O[C@H](c2ccccc2)[C@H](c2ccccc2)N1C(=O)OCc1ccccc1)N[C@@H](c1ccccc1)[C@H](O)c1ccccc1`, 97.2 µM. The same measure, in the same setting: in the case of `CN(C)c1ccc(/C=C/c2sc3ccccc3[n+]2C)cc1` it was 31.1 µM and 36.8 µM; in that of `NC(Cc1ccc2nc3c4ccccc4c(=O)cc-3oc2c1)C(=O)O` (stereo not given), above 100 µM; in that of `CC(C)C1=CC(=O)[C@@](C)(C2[C@H](O)C[C@@]3(C)[C@@H]4CC=C5[C@@H](CC[C@@H](OC6OCC(O)C(O)C6OC6OC(C)C(O)C(O)C6O)C5(C)C)[C@]4(C)C(=O)C[C@]23C)O1` (stereo not given in full), above 100 µM. Same read-out and setting: as for `CC(C)(NC(=O)OCc1ccccc1)C(=O)OC(=O)C(C)(C)NC(=O)OCc1ccccc1`, the figure is above 100 µM; as for `COC(=O)c1cc(OC)c(OC)c(OC)c1-c1cc2c(cc1C=O)OCO2`, above 10 µM. As to `CN(C)c1cccc(F)c1C(=O)NC(=O)Nc1ccc(Cl)cc1`, the TGI is above 100 µM.

`COc1cc2c(/C=C3/C(=O)Nc4ccc(Cl)cc43)c(Cl)[nH]c2cc1C` had a TGI of 15.5 µM. As to `COc1cc(Cl)cc(-c2nn(-c3cccc(NC(=O)Nc4ccc(Cl)c(Cl)c4)c3)cc2-c2ccncc2)c1`, the GI50 was 3.28 µM and the TGI is above 100 µM.

In turn, `Cc1cc(S(=O)(=O)Nc2n[nH]c(N)n2)c(Cl)cc1Cl` returned a TGI above 10 µM. The same measure, in the same setting: as for `CC(=O)OCC1OC(n2c(Br)nc3c2c(=O)n(C)c(=O)n3C)C(OC(C)=O)C1OC(C)=O` (stereo not given), the figure is above 100 µM; as for `COc1ccccc1C(=O)NCC1CCCN2CCCCC12` (stereo not given), above 100 µM. Same read-out and setting: as for `O=c1[nH]cnc2c(COCCO)c[nH]c12`, the figure is above 100 µM; as for `COc1nc2ccc(COc3ccc(C(=O)O)cc3)cc2nc1OC`, above 100 µM. Still for that read-out and setting: as for `COc1cccc(N2C(=O)C3C4C=C5c6ccccc6N(c6ccccc6)C5(C3C2=O)[C@H]2C(=O)N(c3cccc(OC)c3)C(=O)[C@@H]42)c1` (stereo not given in full), the figure is above 100 µM. On to `O=[N+]([O-])c1cc([N+](=O)[O-])c(Cl)cc1Cl`, for which the GI50 was 1.77 µM and the TGI is 3.29 µM. `CCCCOP(C)(=O)C(NC(=O)OCC)(C(F)(F)F)C(F)(F)F` (stereo not given) had a TGI above 100 µM. The same measure, in the same setting: as for `O=C(SCc1cccc2ccccc12)c1ccc(Cl)cc1`, the figure is above 100 µM; as for `CCn1c(CCl)nc2c1C(=O)c1ccccc1C2=O`, 11.5 µM.

The values above are taken from PubChem BioAssay (NCI).
